The values below come from paper PMC12820563, “FoxP3 forms a head-to-head dimer in vivo and stabilizes its multimerization on adjacent microsatellites”.

The list shows a part of the results.

For the assay, the target named is T1, MBP-FoxP1dN (Mus musculus, UniProt P58462 326-579).
T1 sequence: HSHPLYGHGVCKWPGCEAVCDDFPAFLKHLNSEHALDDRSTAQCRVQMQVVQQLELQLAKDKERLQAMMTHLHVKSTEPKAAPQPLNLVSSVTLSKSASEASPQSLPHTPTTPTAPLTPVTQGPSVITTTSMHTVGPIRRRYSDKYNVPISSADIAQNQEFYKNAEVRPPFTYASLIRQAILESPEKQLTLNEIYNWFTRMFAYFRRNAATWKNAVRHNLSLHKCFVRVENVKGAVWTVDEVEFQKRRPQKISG
The assay can be described thus: PD-seq (MBP pull-down with sequencing); 20 mM Tris-HCl pH 7.5, 100 mM NaCl, 1.5 mM MgCl2, 0.4 uM protein, 0.1 uM dsDNA library, 30 min, room temperature, amylose pull-down; high values mean tight binding. The note with it: protein: recombinant; tags: His6-MBP; chain copies: 2; dsDNA, one strand shown. The method, boiled down: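 Binding is the reads-per-million enrichment of pull-down relative to input, pooled across replicates. For this, 0.4 µM His6-MBP-tagged mouse FoxP3 or FoxP1 fragment lacking the N-terminus, made in E. coli, was incubated with 0.1 µM Klenow-filled double-stranded degenerate DNA library for 30 min at room temperature in Tris pH 7.5 buffer with NaCl and MgCl2. Complexes bound to amylose resin were washed three times before proteinase K released the DNA for PCR barcoding and Illumina sequencing.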
“GATGATTGTTCTCCCAGCTGATGAATTCCCGAGCTCGAGTAAACAAATTTTCCTAATCTTTCTGTTCAAGCGCCATCTAC”: the binding signal was 0.712 RPM ratio (pull-down/input).

With “GATGATTGTTCTCCCAGCTGATGAATTATATCTTTCGAGTAAACAAATTTTCCTAATCTTTCTGTTCAAGCGCCATCTAC”, the binding signal is 0.985 RPM ratio (pull-down/input).

As to “GATGATTGTTCTCCCAGCTGATGAATTTGGGGAGTCGAGTAAACAAATTTTCCTAATCTTTCTGTTCAAGCGCCATCTAC”, the binding signal was 0.823 RPM ratio (pull-down/input).

As to “GATGATTGTTCTCCCAGCTGATGAATTGCCTTCGTCGAGTAAACAAATTTTCCTAATCTTTCTGTTCAAGCGCCATCTAC”, the binding signal is 0.924 RPM ratio (pull-down/input).

Take “GATGATTGTTCTCCCAGCTGATGAATTATACATCTCGAGTAAACAAATTTTCCTAATCTTTCTGTTCAAGCGCCATCTAC”: the binding signal was 1.13 RPM ratio (pull-down/input).

As for “GATGATTGTTCTCCCAGCTGATGAATTCTACCTCTCGAGTAAACAAATTTTCCTAATCTTTCTGTTCAAGCGCCATCTAC”, the binding signal was 0.819 RPM ratio (pull-down/input).

In the case of “GATGATTGTTCTCCCAGCTGATGAATTACACGCTTCGAGTAAACAAATTTTCCTAATCTTTCTGTTCAAGCGCCATCTAC”, the binding signal was 1.14 RPM ratio (pull-down/input).

“GATGATTGTTCTCCCAGCTGATGAATTCAGGGGTTCGAGTAAACAAATTTTCCTAATCTTTCTGTTCAAGCGCCATCTAC”: the binding signal was 0.822 RPM ratio (pull-down/input).

Take “GATGATTGTTCTCCCAGCTGATGAATTCGCGCGTTCGAGTAAACAAATTTTCCTAATCTTTCTGTTCAAGCGCCATCTAC”: the binding signal is 0.955 RPM ratio (pull-down/input).

For the sequence “GATGATTGTTCTCCCAGCTGATGAATTCCCATACTCGAGTAAACAAATTTTCCTAATCTTTCTGTTCAAGCGCCATCTAC”, the binding signal is 0.85 RPM ratio (pull-down/input).

Regarding “GATGATTGTTCTCCCAGCTGATGAATTTACTTGATCGAGTAAACAAATTTTCCTAATCTTTCTGTTCAAGCGCCATCTAC”, the binding signal was 1.23 RPM ratio (pull-down/input).

In the case of “GATGATTGTTCTCCCAGCTGATGAATTGAAGTGTTCGAGTAAACAAATTTTCCTAATCTTTCTGTTCAAGCGCCATCTAC”, the binding signal is 0.866 RPM ratio (pull-down/input).

Turning to “GATGATTGTTCTCCCAGCTGATGAATTTCGACGCTCGAGTAAACAAATTTTCCTAATCTTTCTGTTCAAGCGCCATCTAC”, the binding signal is 0.91 RPM ratio (pull-down/input).

For the sequence “GATGATTGTTCTCCCAGCTGATGAATTGCCTGCTTCGAGTAAACAAATTTTCCTAATCTTTCTGTTCAAGCGCCATCTAC”, the binding signal was 0.91 RPM ratio (pull-down/input).

As to “GATGATTGTTCTCCCAGCTGATGAATTTCCTTTATCGAGTAAACAAATTTTCCTAATCTTTCTGTTCAAGCGCCATCTAC”, the binding signal is 0.929 RPM ratio (pull-down/input).

As for “GATGATTGTTCTCCCAGCTGATGAATTTTGTAATTCGAGTAAACAAATTTTCCTAATCTTTCTGTTCAAGCGCCATCTAC”, the binding signal is 1.09 RPM ratio (pull-down/input).

Regarding “GATGATTGTTCTCCCAGCTGATGAATTTAAATCTTCGAGTAAACAAATTTTCCTAATCTTTCTGTTCAAGCGCCATCTAC”, the binding signal is 0.91 RPM ratio (pull-down/input).

Turning to “GATGATTGTTCTCCCAGCTGATGAATTAGGCTCCTCGAGTAAACAAATTTTCCTAATCTTTCTGTTCAAGCGCCATCTAC”, the binding signal is 0.819 RPM ratio (pull-down/input).

As for “GATGATTGTTCTCCCAGCTGATGAATTCAAACGCTCGAGTAAACAAATTTTCCTAATCTTTCTGTTCAAGCGCCATCTAC”, the binding signal is 0.938 RPM ratio (pull-down/input).

As to “GATGATTGTTCTCCCAGCTGATGAATTCTTCGTATCGAGTAAACAAATTTTCCTAATCTTTCTGTTCAAGCGCCATCTAC”, the binding signal is 0.959 RPM ratio (pull-down/input).

With “GATGATTGTTCTCCCAGCTGATGAATTGCGTCTTTCGAGTAAACAAATTTTCCTAATCTTTCTGTTCAAGCGCCATCTAC”, the binding signal was 1.15 RPM ratio (pull-down/input).

For “GATGATTGTTCTCCCAGCTGATGAATTGGGGTCATCGAGTAAACAAATTTTCCTAATCTTTCTGTTCAAGCGCCATCTAC”, the binding signal is 0.891 RPM ratio (pull-down/input).

On to “GATGATTGTTCTCCCAGCTGATGAATTCCGTGTCTCGAGTAAACAAATTTTCCTAATCTTTCTGTTCAAGCGCCATCTAC”, for which the binding signal was 0.846 RPM ratio (pull-down/input).

As to “GATGATTGTTCTCCCAGCTGATGAATTCCCACTTTCGAGTAAACAAATTTTCCTAATCTTTCTGTTCAAGCGCCATCTAC”, the binding signal is 0.873 RPM ratio (pull-down/input).

Take “GATGATTGTTCTCCCAGCTGATGAATTGACTGAGTCGAGTAAACAAATTTTCCTAATCTTTCTGTTCAAGCGCCATCTAC”: the binding signal is 1.03 RPM ratio (pull-down/input).

Consider “GATGATTGTTCTCCCAGCTGATGAATTGTAAGTTTCGAGTAAACAAATTTTCCTAATCTTTCTGTTCAAGCGCCATCTAC”, for which the binding signal was 0.989 RPM ratio (pull-down/input).

In the case of “GATGATTGTTCTCCCAGCTGATGAATTTCCCATCTCGAGTAAACAAATTTTCCTAATCTTTCTGTTCAAGCGCCATCTAC”, the binding signal was 0.808 RPM ratio (pull-down/input).

Turning to “GATGATTGTTCTCCCAGCTGATGAATTCCGTTCATCGAGTAAACAAATTTTCCTAATCTTTCTGTTCAAGCGCCATCTAC”, the binding signal is 0.85 RPM ratio (pull-down/input).

“GATGATTGTTCTCCCAGCTGATGAATTGAAAATGTCGAGTAAACAAATTTTCCTAATCTTTCTGTTCAAGCGCCATCTAC”: the binding signal is 0.884 RPM ratio (pull-down/input).

In the case of “GATGATTGTTCTCCCAGCTGATGAATTACAATTATCGAGTAAACAAATTTTCCTAATCTTTCTGTTCAAGCGCCATCTAC”, the binding signal is 1.51 RPM ratio (pull-down/input).

As for “GATGATTGTTCTCCCAGCTGATGAATTACGCGGTTCGAGTAAACAAATTTTCCTAATCTTTCTGTTCAAGCGCCATCTAC”, the binding signal is 1.01 RPM ratio (pull-down/input).

In the case of “GATGATTGTTCTCCCAGCTGATGAATTTTACGCGTCGAGTAAACAAATTTTCCTAATCTTTCTGTTCAAGCGCCATCTAC”, the binding signal is 1.02 RPM ratio (pull-down/input).
